Measured values reported in patent publication US20190367516A1 (Bayer Pharma Aktiengesellschaft, priority 2015, published 2019).

Molecular target: T1, human M2 receptor (Homo sapiens, UniProt P08172)
T1 sequence (P08172 1-466): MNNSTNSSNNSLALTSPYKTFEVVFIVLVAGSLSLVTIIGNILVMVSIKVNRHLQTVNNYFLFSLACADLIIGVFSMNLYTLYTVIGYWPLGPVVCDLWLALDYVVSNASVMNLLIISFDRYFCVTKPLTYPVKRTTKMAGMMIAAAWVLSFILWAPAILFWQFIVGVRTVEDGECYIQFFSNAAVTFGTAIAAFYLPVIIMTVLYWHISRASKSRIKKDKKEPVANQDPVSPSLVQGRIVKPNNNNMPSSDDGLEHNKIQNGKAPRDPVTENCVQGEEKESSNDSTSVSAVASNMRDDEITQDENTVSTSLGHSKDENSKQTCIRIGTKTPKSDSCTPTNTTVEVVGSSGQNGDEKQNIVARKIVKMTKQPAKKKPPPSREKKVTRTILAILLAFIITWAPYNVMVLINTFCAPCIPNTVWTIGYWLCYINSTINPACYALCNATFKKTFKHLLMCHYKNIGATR
Details: M2-GIRK1/4 activation test; boosting of the acetylcholine effect at an EC20 acetylcholine concentration

In the case of `CC[C@@H](NC(=O)c1cn(-c2c(F)cc(F)cc2F)c2nc(N3CCC(O)C3=O)ccc2c1=O)C(F)(F)F` (stereo partly drawn) [Example 282, 7-[3-Hydroxy-2-oxopyrrolidin-1-yl-4-oxo-N-[(2R)-1,1,1-trifluorobutan-2-yl]-4-oxo-N-trifluorobutan-2-yl]-1-(2,4,6-trifluorophenyl)-1,4-dihydro-1,8-naphthyridine-3-carboxamide], the Efficiency is reported as 99.5%.

Same assay, conditions: read-out: Efficiency, M2-GIRK1/4 activation test; boosting of the acetylcholine effect at an EC20 acetylcholine concentration

Point of comparison: `CC[C@@H](NC(=O)c1cn(-c2ccc(F)cc2F)c2nc(N3C[C@@H](C(=O)OC)OC3=O)ccc2c1=O)C(F)(F)F` [Example 257, Methyl (5S)-3-[8-(2,4-difluorophenyl)-5-oxo-6-{[(2R)-1,1,1-trifluorobutan-2-yl]carbamoyl}-5,8-dihydro-1,8-naphthyridin-2-yl]-2-oxo-1,3-oxazolidine-5-carboxylate], Emax 100%. Against it:
- CC(C)(NC(=O)c1cn(-c2ccc(F)cc2F)c2nc(N3CC[C@@H](OC(F)F)C3)ccc2c1=O)c1c(F)cccc1F [Example 188, 7-[(3R)-3-(Difluoromethoxy)pyrrolidin-1-yl]-1-(2,4-difluorophenyl)-N-[2-(2,6-difluorophenyl)propan-2-yl]-4-oxo-1,4-dihydro-1,8-naphthyridine-3-carboxamide] — lower, 98.5%
- CC[C@@H](NC(=O)c1cn(-c2ccc(F)cc2F)c2nc(N3CC[C@H](F)C3)ccc2c1=O)C(F)(F)F [Example 189, 1-(2,4-Difluorophenyl)-7-[(3S)-3-fluoropyrrolidin-1-yl]-4-oxo-N-[(2R)-1,1,1-trifluorobutan-2-yl]-1,4-dihydro-1,8-naphthyridine-3-carboxamide] — lower, 90.5%
- CC[C@@H](NC(=O)c1cn(-c2ccc(F)cc2F)c2nc(N3C[C@@H]4C(COC)[C@@H]4C3)ccc2c1=O)C(F)(F)F (stereo partly drawn) [Example 190, 1-(2,4-Difluorophenyl)-7-[(1R,5S)-6-(methoxymethyl)-3-azabicyclo[3.1.0]hex-3-yl]-4-oxo-N-[(2R)-1,1,1-trifluorobutan-2-yl]-1,4-dihydro-1,8-naphthyridine-3-carboxamide] — lower, 93.7%
- CC[C@@H](NC(=O)c1cn(-c2ccc(F)cc2F)c2nc(N3CCCC3)ccc2c1=O)C(F)(F)F [Example 192, 1-(2,4-Difluorophenyl)-4-oxo-7-(pyrrolidin-1-yl)-N-[(2R)-1,1,1-trifluorobutan-2-yl]-1,4-dihydro-1,8-naphthyridine-3-carboxamide] — lower, 91.7%
- CC[C@@H](NC(=O)c1cn(-c2ccc(F)cc2F)c2nc(N3C[C@@H](OC)CC3=O)ccc2c1=O)C(F)(F)F [Example 193, 1-(2,4-Difluorophenyl)-7-[(4S)-4-methoxy-2-oxopyrrolidin-1-yl]-4-oxo-N-[(2R)-1,1,1-trifluorobutan-2-yl]-1,4-dihydro-1,8-naphthyridine-3-carboxamide] — the same, 100%
- CC[C@@H](NC(=O)c1cn(-c2ccc(F)cc2F)c2nc(N3CC(OC(=O)NC)CC3=O)ccc2c1=O)C(F)(F)F (stereo partly drawn) [Example 200, (3S)-1-[8-(2,4-Difluorophenyl)-5-oxo-6-{[(2R)-1,1,1-trifluorobutan-2-yl]carbamoyl}-5,8-dihydro-1,8-naphthyridin-2-yl]-5-oxopyrrolidin-3-yl methyl carbamate] — lower, 83.3%
- O=C(Nc1c(Cl)cccc1Cl)c1cn(-c2ccc(F)cc2F)c2nc(N3C[C@@H](O)CC3=O)ccc2c1=O [Example 201, N-(2,6-Dichlorophenyl)-1-(2,4-difluorophenyl)-7-[(4S)-4-hydroxy-2-oxopyrrolidin-1-yl]-4-oxo-1,4-dihydro-1,8-naphthyridine-3-carboxamide] — lower, 94.8%
- O=C(Nc1c(Cl)cccc1Cl)c1cn(-c2ccc(F)cc2F)c2nc(N3CC[C@H](O)C3=O)ccc2c1=O [Example 202, N-(2,6-Dichlorophenyl)-1-(2,4-difluorophenyl)-7-[(3S)-3-hydroxy-2-oxopyrrolidin-1-yl]-4-oxo-1,4-dihydro-1,8-naphthyridine-3-carboxamide] — lower, 93.3%
- CC[C@H](NC(=O)c1cn(-c2ccccc2F)c2nc(N(C)C)ccc2c1=O)C(F)(F)F [Example 203, 7-(Dimethylamino)-1-(2-fluorophenyl)-4-oxo-N-[(2S)-1,1,1-trifluorobutan-2-yl]-1,4-dihydro-1,8-naphthyridine-3-carboxamide] — lower, 92.5%
- CC[C@@H](NC(=O)c1cn(-c2ccc(F)cc2F)c2nc(N3CCC3=O)ccc2c1=O)C(F)(F)F [Example 205, 1-(2,4-Difluorophenyl)-4-oxo-7-(2-oxoazetidin-1-yl)-N-[(2R)-1,1,1-trifluorobutan-2-yl]-1,4-dihydro-1,8-naphthyridine-3-carboxamide] — lower, 85%
- O=C(NC(c1ccccc1Cl)C(F)(F)F)c1cn(-c2ccc(F)cc2F)c2nc(N3CC[C@H](F)C3)ccc2c1=O (stereo partly drawn) [Example 217, N-[1-(2-Chlorophenyl)-2,2,2-trifluoroethyl]-1-(2,4-difluorophenyl)-7-[(3S)-3-fluoropyrrolidin-1-yl]-4-oxo-1,4-dihydro-1,8-naphthyridine-3-carboxamide] — lower, 96.3%
- CCC(COC(F)(F)F)NC(=O)c1cn(-c2ccc(F)cc2F)c2nc(N3C[C@@H](O)CC3=O)ccc2c1=O (stereo partly drawn) [Example 234, 1-(2,4-Difluorophenyl)-7-[(4S)-4-hydroxy-2-oxopyrrolidin-1-yl]-4-oxo-N-[1-(trifluoromethoxy)butan-2-yl]-1,4-dihydro-1,8-naphthyridine-3-carboxamide] — lower, 89.8%
- CC(NC(=O)c1cn(-c2ccc(F)cc2F)c2nc(N3C[C@@H](O)CC3=O)ccc2c1=O)c1ccccc1F (stereo partly drawn) [Example 235, 1-(2,4-Difluorophenyl)-N-[1-(2-fluorophenyl)ethyl]-7-[(4S)-4-hydroxy-2-oxopyrrolidin-1-yl]-4-oxo-1,4-dihydro-1,8-naphthyridine-3-carboxamide] — lower, 98.3%
- COCC(C)(NC(=O)c1cn(-c2ccc(F)cc2F)c2nc(N3C[C@@H](O)CC3=O)ccc2c1=O)C(F)(F)F (stereo partly drawn) [Example 236, 1-(2,4-Difluorophenyl)-7-[(4S)-4-hydroxy-2-oxopyrrolidin-1-yl]-4-oxo-N-[1,1,1-trifluoro-3-methoxy-2-methylpropan-2-yl]-1,4-dihydro-1,8-naphthyridine-3-carboxamide] — the same, 100%
- O=C(NC1(C(F)(F)F)CCOCC1)c1cn(-c2ccc(F)cc2F)c2nc(N3C[C@@H](O)CC3=O)ccc2c1=O [Example 237, 1-(2,4-Difluorophenyl)-7-[(4S)-4-hydroxy-2-oxopyrrolidin-1-yl]-4-oxo-N-[4-(trifluoromethyl)tetrahydro-2H-pyran-4-yl]-1,4-dihydro-1,8-naphthyridine-3-carboxamide] — the same, 100%
- O=C(NC(c1c(F)cccc1F)C(F)(F)F)c1cn(-c2ccc(F)cc2F)c2nc(N3CCCC(O)C3=O)ccc2c1=O (stereo not drawn) [Example 247, 1-(2,4-Difluorophenyl)-N-[1-(2,6-difluorophenyl)-2,2,2-trifluoroethyl]-7-[3-hydroxy-2-oxopiperidin-1-yl]-4-oxo-1,4-dihydro-1,8-naphthyridine-3-carboxamide] — lower, 93%
- CC[C@H](NC(=O)c1cn(-c2ccc(F)cc2F)c2nc(N3C[C@@H](C(=O)OC)OC3=O)ccc2c1=O)C(F)(F)F [Example 258, Methyl (5S)-3-[8-(2,4-difluorophenyl)-5-oxo-6-{[(2S)-1,1,1-trifluorobutan-2-yl]carbamoyl}-5,8-dihydro-1,8-naphthyridin-2-yl]-2-oxo-1,3-oxazolidine-5-carboxylate] — lower, 99.3%
- CC[C@H](NC(=O)c1cn(-c2ccc(F)cc2F)c2nc(N3C[C@H](C(=O)OC)OC3=O)ccc2c1=O)C(F)(F)F [Example 259, Methyl (5R)-3-[8-(2,4-difluorophenyl)-5-oxo-6-{[(2S)-1,1,1-trifluorobutan-2-yl]carbamoyl}-5,8-dihydro-1,8-naphthyridin-2-yl]-2-oxo-1,3-oxazolidine-5-carboxylate] — lower, 94.5%
- CC[C@@H](NC(=O)c1cn(-c2ccc(F)cc2F)c2nc(N3CC(O)C3)ccc2c1=O)C(F)(F)F [Example 261, 1-(2,4-Difluorophenyl)-7-(3-hydroxyazetidin-1-yl)-4-oxo-N-[(2R)-1,1,1-trifluorobutan-2-yl]-1,4-dihydro-1,8-naphthyridine-3-carboxamide] — lower, 95.7%
- CC[C@@H](NC(=O)c1cn(-c2ccc(F)cc2F)c2nc(N3CC(O)(C(F)(F)F)C3)ccc2c1=O)C(F)(F)F [Example 262, 1-(2,4-Difluorophenyl)-7-[3-hydroxy-3-(trifluoromethyl)azetidin-1-yl]-4-oxo-N-[(2R)-1,1,1-trifluorobutan-2-yl]-1,4-dihydro-1,8-naphthyridine-3-carboxamide] — lower, 89%
- O=C(N[C@H](C1CC1)C(F)(F)F)c1cn(-c2ccc(F)cc2F)c2nc(N3C[C@@H](O)CC3=O)ccc2c1=O [Example 271, N-[(1R)-1-Cyclopropyl-2,2,2-trifluoroethyl]-1-(2,4-difluorophenyl)-7-[(4S)-4-hydroxy-2-oxopyrrolidin-1-yl]-4-oxo-1,4-dihydro-1,8-naphthyridine-3-carboxamide] — lower, 91%
- CC[C@H](NC(=O)c1cn(-c2ccc(F)cc2F)c2nc(N3CC=CC3=O)ccc2c1=O)C(F)(F)F [Example 286, 1-(2,4-Difluorophenyl)-4-oxo-7-(2-oxo-2,5-dihydro-1H-pyrrol-1-yl)-N-[(2S)-1,1,1-trifluorobutan-2-yl]-1,4-dihydro-1,8-naphthyridine-3-carboxamide] — lower, 40%
